This is an account of results in patent publication US6403764.

For orientation: IC50 means the concentration that gives 50% inhibition.

Assay [1] has as its target T1, recombinant human IGFBP-3 (human, UniProt P17936).
T1 construct: mature; Secreted recombinant protein
Briefly: competitive phage ELISA. The protocol: (§1) Phage particles were harvested and resuspended in PBS buffer as described in Lowman, H. B., "Phage Display of Peptide Libraries on Protein Scaffolds," in Cabilly, S. (ed.), *Combinatorial Peptide Library Protocols* (Humana Press Inc.: Totowa, N.J., 1998), pp. 249–264. Then phage concentrations were normalized to yield a maximal ELISA signal of 0.2–0.4 for each mutant (Lowman, in Cabilly, S. (ed.), supra). Threefold serial dilutions of soluble competitor were prepared on non-absorbent microtiter plates (Nunc, F, 96 wells) with binding buffer (0.5% TWEEN™ 20/PBS) containing phage at the previously-determined concentrations. The dilution range of competitor protein extended over six orders of magnitude, starting at 5 µM for IGFBP-1 and 500 nM for IGFBP-3. After blocking, the plates containing immobilized target were washed with 0.05% TWEEN™/PBS buffer and subsequently incubated with 80 µl/well of the premixed phage-competitor solutions for 1 hour at room temperature. […] Numbers in Table I represent mean±standard deviation of individually assessed $IC50$ values.
(§2) At least two different clones of every mutant were tested.

The target in a further assay is T2, human IGFBP-1 (human, UniProt P08833 26-259).
T2 construct: mature; Secreted recombinant protein; also called IGFBP-I
T2 sequence (looked up): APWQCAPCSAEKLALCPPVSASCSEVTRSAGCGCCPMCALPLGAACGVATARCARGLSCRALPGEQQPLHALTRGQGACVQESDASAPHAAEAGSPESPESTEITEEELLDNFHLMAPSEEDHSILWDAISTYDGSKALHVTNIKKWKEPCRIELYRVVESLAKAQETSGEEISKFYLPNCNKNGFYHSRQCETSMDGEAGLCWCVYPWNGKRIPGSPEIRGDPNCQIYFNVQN
Briefly: competitive phage ELISA. The protocol:
as §1, §2

T1 sequence (P17936 28-291): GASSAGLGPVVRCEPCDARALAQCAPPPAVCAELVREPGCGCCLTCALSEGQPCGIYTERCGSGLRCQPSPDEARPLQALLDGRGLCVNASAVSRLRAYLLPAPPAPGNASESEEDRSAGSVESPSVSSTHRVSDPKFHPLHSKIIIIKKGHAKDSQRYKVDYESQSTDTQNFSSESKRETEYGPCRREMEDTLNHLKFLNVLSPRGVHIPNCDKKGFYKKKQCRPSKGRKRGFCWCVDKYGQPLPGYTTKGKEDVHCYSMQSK

B1: IGF-I V70A displayed on phage (ligand, not shown: large carriers; small tags and cut ends)
chain: not shown
notes: On phage; single mutant V70A of the G1S-A70V template, which restores native A70
In the case of B1, the IC50 in assay [1] stood at 0.68 nM; with human IGFBP-1 it was 19.1 nM.
